This is one part of the list.

Results on 32 sequences are retold here after paper PMC12820563, “FoxP3 forms a head-to-head dimer in vivo and stabilizes its multimerization on adjacent microsatellites”.

This assay deals with T1, MBP-FoxP1dN (Mus musculus, UniProt P58462 326-579).
T1 sequence: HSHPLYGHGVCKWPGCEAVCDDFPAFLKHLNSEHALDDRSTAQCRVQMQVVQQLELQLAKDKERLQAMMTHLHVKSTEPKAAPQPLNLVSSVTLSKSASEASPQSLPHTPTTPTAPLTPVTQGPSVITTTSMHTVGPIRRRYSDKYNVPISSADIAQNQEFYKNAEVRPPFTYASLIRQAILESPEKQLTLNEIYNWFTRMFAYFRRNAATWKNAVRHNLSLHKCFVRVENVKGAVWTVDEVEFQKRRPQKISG
Description: PD-seq (MBP pull-down with sequencing); 20 mM Tris-HCl pH 7.5, 100 mM NaCl, 1.5 mM MgCl2, 0.4 uM protein, 0.1 uM dsDNA library, 30 min, room temperature, amylose pull-down; high values mean tight binding. The settings on record: protein: recombinant; tags: His6-MBP; chain copies: 2; dsDNA, one strand shown. An outline of the steps: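 A fragment of mouse FoxP3 or FoxP1 without its N-terminus, carrying a His6-MBP tag and produced in E. coli, was combined at 0.4 µM with a 0.1 µM degenerate double-stranded DNA library filled in with Klenow. The mixture sat for 30 min at room temperature in Tris pH 7.5 buffer containing NaCl and MgCl2. Protein–DNA complexes were captured on amylose resin, washed three times, and the DNA was freed with proteinase K, barcoded by PCR and sequenced on Illumina. Binding is expressed as reads-per-million enrichment of pull-down over input, with replicates pooled.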
For “GATGATTGTTCTCCCAGCTGATGAATTCTGTTCATCGAGTAAACAAATTTTCCTAATCTTTCTGTTCAAGCGCCATCTAC”, the binding signal is 0.902 RPM ratio (pull-down/input).
With “GATGATTGTTCTCCCAGCTGATGAATTACATAAATCGAGTAAACAAATTTTCCTAATCTTTCTGTTCAAGCGCCATCTAC” the figure was 1.64 RPM ratio (pull-down/input).
For the sequence “GATGATTGTTCTCCCAGCTGATGAATTTTTCTTGTCGAGTAAACAAATTTTCCTAATCTTTCTGTTCAAGCGCCATCTAC”, the binding signal was 1.1 RPM ratio (pull-down/input).
Then “GATGATTGTTCTCCCAGCTGATGAATTCATTGAATCGAGTAAACAAATTTTCCTAATCTTTCTGTTCAAGCGCCATCTAC”, with 0.889 RPM ratio (pull-down/input); and “GATGATTGTTCTCCCAGCTGATGAATTAGGGGATTCGAGTAAACAAATTTTCCTAATCTTTCTGTTCAAGCGCCATCTAC”, with 0.815 RPM ratio (pull-down/input); and “GATGATTGTTCTCCCAGCTGATGAATTTTTTGGCTCGAGTAAACAAATTTTCCTAATCTTTCTGTTCAAGCGCCATCTAC”, with 0.855 RPM ratio (pull-down/input).
With “GATGATTGTTCTCCCAGCTGATGAATTGAACGTGTCGAGTAAACAAATTTTCCTAATCTTTCTGTTCAAGCGCCATCTAC” the figure was 0.863 RPM ratio (pull-down/input); with “GATGATTGTTCTCCCAGCTGATGAATTCTCGCATTCGAGTAAACAAATTTTCCTAATCTTTCTGTTCAAGCGCCATCTAC”, 1.16 RPM ratio (pull-down/input); with “GATGATTGTTCTCCCAGCTGATGAATTCATGAATTCGAGTAAACAAATTTTCCTAATCTTTCTGTTCAAGCGCCATCTAC”, 0.965 RPM ratio (pull-down/input).
Then “GATGATTGTTCTCCCAGCTGATGAATTACATGGCTCGAGTAAACAAATTTTCCTAATCTTTCTGTTCAAGCGCCATCTAC”, with 1.05 RPM ratio (pull-down/input).
Take “GATGATTGTTCTCCCAGCTGATGAATTGGAAGCCTCGAGTAAACAAATTTTCCTAATCTTTCTGTTCAAGCGCCATCTAC”: the binding signal was 0.788 RPM ratio (pull-down/input).
With “GATGATTGTTCTCCCAGCTGATGAATTTATACCATCGAGTAAACAAATTTTCCTAATCTTTCTGTTCAAGCGCCATCTAC” the figure was 1.3 RPM ratio (pull-down/input).
Then “GATGATTGTTCTCCCAGCTGATGAATTGGGAACGTCGAGTAAACAAATTTTCCTAATCTTTCTGTTCAAGCGCCATCTAC”, with 0.883 RPM ratio (pull-down/input); and “GATGATTGTTCTCCCAGCTGATGAATTTCGTGTCTCGAGTAAACAAATTTTCCTAATCTTTCTGTTCAAGCGCCATCTAC”, with 0.885 RPM ratio (pull-down/input); and “GATGATTGTTCTCCCAGCTGATGAATTGAACATTTCGAGTAAACAAATTTTCCTAATCTTTCTGTTCAAGCGCCATCTAC”, with 0.83 RPM ratio (pull-down/input).
With “GATGATTGTTCTCCCAGCTGATGAATTGAGAACGTCGAGTAAACAAATTTTCCTAATCTTTCTGTTCAAGCGCCATCTAC” the figure was 0.826 RPM ratio (pull-down/input); with “GATGATTGTTCTCCCAGCTGATGAATTTGCGAGTTCGAGTAAACAAATTTTCCTAATCTTTCTGTTCAAGCGCCATCTAC”, 0.91 RPM ratio (pull-down/input); with “GATGATTGTTCTCCCAGCTGATGAATTGCTGCGGTCGAGTAAACAAATTTTCCTAATCTTTCTGTTCAAGCGCCATCTAC”, 0.932 RPM ratio (pull-down/input).
“GATGATTGTTCTCCCAGCTGATGAATTTCGCCAGTCGAGTAAACAAATTTTCCTAATCTTTCTGTTCAAGCGCCATCTAC”: the binding signal is 0.805 RPM ratio (pull-down/input).
Then “GATGATTGTTCTCCCAGCTGATGAATTTCCCGCTTCGAGTAAACAAATTTTCCTAATCTTTCTGTTCAAGCGCCATCTAC”, with 0.84 RPM ratio (pull-down/input).
For “GATGATTGTTCTCCCAGCTGATGAATTTTCCTGCTCGAGTAAACAAATTTTCCTAATCTTTCTGTTCAAGCGCCATCTAC”, the binding signal is 0.865 RPM ratio (pull-down/input).
Then “GATGATTGTTCTCCCAGCTGATGAATTGATTGATTCGAGTAAACAAATTTTCCTAATCTTTCTGTTCAAGCGCCATCTAC”, with 1.08 RPM ratio (pull-down/input); and “GATGATTGTTCTCCCAGCTGATGAATTTAGACGCTCGAGTAAACAAATTTTCCTAATCTTTCTGTTCAAGCGCCATCTAC”, with 1.05 RPM ratio (pull-down/input).
Then “GATGATTGTTCTCCCAGCTGATGAATTTTCGGCTTCGAGTAAACAAATTTTCCTAATCTTTCTGTTCAAGCGCCATCTAC”, with 0.785 RPM ratio (pull-down/input); and “GATGATTGTTCTCCCAGCTGATGAATTCCTCCGATCGAGTAAACAAATTTTCCTAATCTTTCTGTTCAAGCGCCATCTAC”, with 0.793 RPM ratio (pull-down/input).
Then “GATGATTGTTCTCCCAGCTGATGAATTATTGCTTTCGAGTAAACAAATTTTCCTAATCTTTCTGTTCAAGCGCCATCTAC”, with 1.74 RPM ratio (pull-down/input); and “GATGATTGTTCTCCCAGCTGATGAATTCAAACGTTCGAGTAAACAAATTTTCCTAATCTTTCTGTTCAAGCGCCATCTAC”, with 0.905 RPM ratio (pull-down/input); and “GATGATTGTTCTCCCAGCTGATGAATTGACTGGATCGAGTAAACAAATTTTCCTAATCTTTCTGTTCAAGCGCCATCTAC”, with 0.882 RPM ratio (pull-down/input).
“GATGATTGTTCTCCCAGCTGATGAATTGTGGACCTCGAGTAAACAAATTTTCCTAATCTTTCTGTTCAAGCGCCATCTAC”: the binding signal was 0.924 RPM ratio (pull-down/input).
With “GATGATTGTTCTCCCAGCTGATGAATTTTATCTATCGAGTAAACAAATTTTCCTAATCTTTCTGTTCAAGCGCCATCTAC” the figure was 0.92 RPM ratio (pull-down/input); with “GATGATTGTTCTCCCAGCTGATGAATTGGTCAACTCGAGTAAACAAATTTTCCTAATCTTTCTGTTCAAGCGCCATCTAC”, 1.04 RPM ratio (pull-down/input).
Then “GATGATTGTTCTCCCAGCTGATGAATTCGTTTTCTCGAGTAAACAAATTTTCCTAATCTTTCTGTTCAAGCGCCATCTAC”, with 0.901 RPM ratio (pull-down/input).
